Assay results published in publication PMC4336329 (PLoS ONE, 2015).
Hit rate of the full screen: of about 310,000 compounds, about 14,000 (4.5%) showed an effect of 50% or more. The effect is printed as a negative number. The list shows a part of the results.

target: human ether-à-go-go-related gene (hERG) potassium channel (human, UniProt Q12809); test: primary screen, population patch clamp on CHO cells stably expressing hERG
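Further: peak tail current of the secondary pulse compared with the same well before compound.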

Sequence of human ether-à-go-go-related gene (hERG) potassium channel (Q12809 whole entry, looked up): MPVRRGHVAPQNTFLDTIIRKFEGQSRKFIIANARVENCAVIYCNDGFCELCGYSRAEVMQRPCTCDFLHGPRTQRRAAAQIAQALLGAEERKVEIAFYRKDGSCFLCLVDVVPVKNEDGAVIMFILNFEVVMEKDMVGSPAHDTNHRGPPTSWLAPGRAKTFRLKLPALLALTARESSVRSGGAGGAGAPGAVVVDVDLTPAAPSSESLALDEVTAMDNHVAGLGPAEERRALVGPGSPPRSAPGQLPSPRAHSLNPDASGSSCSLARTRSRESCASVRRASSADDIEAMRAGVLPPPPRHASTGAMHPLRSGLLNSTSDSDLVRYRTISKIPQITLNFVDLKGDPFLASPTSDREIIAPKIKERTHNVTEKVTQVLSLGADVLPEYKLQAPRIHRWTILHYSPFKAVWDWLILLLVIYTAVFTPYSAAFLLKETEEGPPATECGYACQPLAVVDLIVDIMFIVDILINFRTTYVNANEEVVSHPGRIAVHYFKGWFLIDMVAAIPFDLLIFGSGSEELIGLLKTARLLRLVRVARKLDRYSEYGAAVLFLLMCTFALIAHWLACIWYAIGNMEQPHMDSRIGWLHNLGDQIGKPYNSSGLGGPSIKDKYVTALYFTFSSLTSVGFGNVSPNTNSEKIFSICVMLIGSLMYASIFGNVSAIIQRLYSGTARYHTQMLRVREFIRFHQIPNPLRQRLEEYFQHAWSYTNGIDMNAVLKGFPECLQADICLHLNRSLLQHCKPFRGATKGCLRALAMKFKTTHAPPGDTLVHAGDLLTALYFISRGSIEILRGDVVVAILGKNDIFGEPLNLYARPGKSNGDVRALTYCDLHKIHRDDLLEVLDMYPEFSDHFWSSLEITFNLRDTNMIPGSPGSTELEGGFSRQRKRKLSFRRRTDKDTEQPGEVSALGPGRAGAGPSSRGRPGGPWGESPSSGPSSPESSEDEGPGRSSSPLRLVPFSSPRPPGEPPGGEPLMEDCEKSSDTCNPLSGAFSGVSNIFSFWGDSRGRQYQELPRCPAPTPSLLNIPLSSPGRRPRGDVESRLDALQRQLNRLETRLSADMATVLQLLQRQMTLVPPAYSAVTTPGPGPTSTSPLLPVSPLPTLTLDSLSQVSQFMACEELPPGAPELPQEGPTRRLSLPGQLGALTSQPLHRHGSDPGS

| Structure (SMILES) | hERG current change (%, negative = inhibition) at 10uM |
| --- | --- |
| Cc1ccc(C(=O)N2CCN(c3ccc(C(F)(F)F)cn3)CC2)cc1 | -0.62% |
| CN(C)S(=O)(=O)c1cccc(NC(=O)COC(=O)/C=C/c2ccc([N+](=O)[O-])cc2)c1 | -20.8% |
| CCSc1nc2sc3c(c2c(=O)[nH]1)CCc1ccccc1-3 | 6.61% |
| Cc1cc(Br)ccc1OCCNCc1ccccc1.O=C(O)C(=O)O | -14.6% |
| Cc1cccc(C(=O)OCc2cc(=O)oc3c(C)c(C)ccc23)c1O | -5.7% |
| Cc1c(Cl)ccc2c(C(N)=O)cc(-c3ccccn3)nc12 | 23.6% |
| O=C(Oc1cccc(-n2cnnn2)c1)C1CCCCC1 | -6.63% |
| CCOC(=O)C1CCN(C(=O)C(C)Oc2ccc(Br)cc2)CC1 (centres unmarked) | -16.1% |
| C=CCNCC(=O)NN=C(c1ccccc1)c1ccccc1 | -68.5% |
| Cc1nc(CS(=O)c2ccccc2)cc(N2CCOCC2)n1 (centres unmarked) | 7.23% |
| CC(=O)Nc1ccc(S(=O)(=O)NC(C)C(=O)NC(C)c2ccccc2)cc1 (centres unmarked) | 15.3% |
| O=C(CSc1ccc(-c2ccco2)nn1)Nc1ccc(F)cc1F | -65.8% |
| COC(=O)[C@@]1(Cc2ccc(F)cc2)[C@H]2c3cc(C(=O)N4CCCC4)n(CCO)c3C[C@H]2CN1C(=O)c1ccccc1 | -51.4% |
| CN(C1CCCCC1)S(=O)(=O)CCNC(=O)c1ccccc1 | 4.76% |
| COc1cc(NC(=O)c2ccc3c(=O)n(Cc4ccco4)c(=S)[nH]c3c2)cc(OC)c1OC | 8.2% |
| CCOC(=O)Cc1csc(N/C(=N/S(=O)(=O)c2ccc(Cl)cc2)c2ccccc2)n1 | 12.9% |
| Cc1ccc(-c2csc3ncn(Cc4ccc(C(=O)O)cc4)c(=O)c23)cc1C | 4.52% |
| N#Cc1cc2c(nc1Cl)CCC2 | 8.4% |
| CC1(C)C=Cc2cc3ccc(=O)oc3cc2O1 | 3.51% |
| O=C(OCc1cc(=O)n2ccsc2n1)c1ccc(O)cc1O | -12.7% |
| COc1ccc(-c2cc(C(F)(F)F)nc(-n3ccnc3)n2)cc1 | 7.99% |
| COc1ccc(NC(=O)CC2C(=O)N(C)C(=S)N2CCc2ccccc2F)cc1 (centres unmarked) | -0.536% |

| Structure (SMILES) | hERG current change (%, negative = inhibition) at 10uM |
| --- | --- |
| COc1cccc(-c2nc(N3CCCCC3)c3ccccc3n2)c1O | 18% |
| COc1cc2c(cc1OC)CN(C(=O)CN1C(=O)c3ccc([N+](=O)[O-])cc3C1=O)CC2 | 2.4% |
| O=C(COc1cccnc1[N+](=O)[O-])NCc1ccco1 | -11.1% |
| COc1ccccc1N1CCN(C(=O)c2ccc3c(c2)CCN3S(=O)(=O)c2ccccc2)CC1 | 7.45% |
| CCOc1ccc(CN2CCN(CCCc3ccccc3)CC2CCO)cc1 (centres unmarked) | -76% |
| CCO[C@@H]1OC(C(=O)N2CCOCC2)=C[C@H](c2cn(C(C)=O)c3ccccc23)[C@H]1CCCO | -20.3% |
| O=[N+]([O-])c1cccnc1SCc1c(F)cccc1Cl | 11% |
| CSc1nc(NNC=O)cc(Oc2ccc(NC(C)=O)cc2)n1 | 14.8% |
| Cc1ccc(S(=O)(=O)N2CCC(C(=O)OC(C)C(=O)NCc3ccc4c(c3)OCO4)CC2)cc1 (centres unmarked) | -37.2% |
| Cn1nccc1C(=O)N1CCCC(C(=O)c2ccc(C(F)(F)F)cc2)C1 (centres unmarked) | 6.14% |
| O=C(O)C1C2CC2CN1C(=O)c1ccc(Cl)cc1Cl (centres unmarked) | 17% |
| CS(=O)(=O)c1nc(-c2ccco2)cc(C(F)(F)F)n1 | 0.442% |
| CC1CCCC(C)N1C(=O)COc1ccccc1F (centres unmarked) | 13.2% |
| Cc1ccc(C(OC(=O)c2ccco2)C(=O)NC2CCCC2)cc1 (centres unmarked) | 10.2% |
| COc1ccc(CCNC(=O)CC2C(=O)NCCN2CC(C)(C)C)cc1 (centres unmarked) | -4.67% |
| O=C(CN1C(=O)NC(c2ccccc2)(c2ccccc2)C1=O)N1CCN(c2ccc(F)cc2)CC1 | -68.4% |
| COc1ccc(-n2c(C)cc(C(=O)CSc3nnc(-c4cccs4)o3)c2C)cc1 | -20.7% |
| Clc1ccc(-c2cn3c(n2)SCC3)cc1 | -19.9% |
| O=C(Cc1ccccc1)N/N=C/c1ccc(-c2ccc([N+](=O)[O-])cc2)o1 | 4.21% |
| COc1c2c(nc3ccccc13)OC(C(C)(O)CO)C2 (centres unmarked) | 10% |
| Cc1ccccc1CN(C)CC(=O)Nc1ccccc1Oc1ccccc1 | 15.6% |
| O=C(CN(C(=O)C1COc2ccccc2O1)c1ccccc1)NCC1CCCO1 (centres unmarked) | -15.6% |

| Structure (SMILES) | hERG current change (%, negative = inhibition) at 10uM |
| --- | --- |
| Cc1cccc(NC(=O)Cn2c(O)c(N=NC(=O)c3ccncc3)c3ccccc32)c1 | 4% |
| COc1ccc(Nc2nc(-c3cccs3)nc3ccccc23)cc1S(=O)(=O)N1CCOCC1 | -17.5% |
| COC(=O)c1ccc(C23CC4(C2)[C@H](CN(Cc2ccc(C(F)(F)F)cc2)[C@@H]4c2ccccc2)C3c2ccccc2)cc1 (some centres unmarked) | 7.29% |
| COc1ccc(NC(=O)Cn2nnc(C(=O)NCc3ccco3)c2N)c(OC)c1 | 20% |
| CCOc1ccc(NC(=O)CSc2n[nH]c(N)n2)c([N+](=O)[O-])c1 | -6.62% |
| Cc1ccc2[nH]cc(C(=O)CN3CCOCC3)c2c1 | 19.1% |
| O=C(N/N=C/c1ccc(Cl)cc1Cl)c1ccc2nc[nH]c2c1 | 18% |
| N#Cc1cc2ccccc2nc1SCC(=O)NC1CC1 | 4.58% |
| c1ccc(-n2nnnc2Oc2ccc(-n3ccnc3)cc2)cc1 | -54% |
| COc1ccc(N(CC(=O)NCCSc2ccccn2)S(=O)(=O)c2ccc(C)cc2)cc1OC | -17.7% |
| CC(OC(=O)/C=C/c1ccccc1Cl)C(=O)NC1CCCCC1C (centres unmarked) | 3.16% |
| CCOC(=O)c1cccc(NC(=O)CSc2nnc(C3CCCCC3)n2C)c1 | -40% |
| CC(=O)O.O=c1/c(=C\c2cccc(O)c2)sc2nc(-c3ccccc3)c(-c3ccccc3)n12 | 11% |
| CCOC(=O)c1c(N2C(=O)Nc3ccccc3N2O)sc2c1CCCCC2 | 4% |
| COc1ccc(N(CC(=O)Nc2cc(OC)ccc2OC)S(=O)(=O)c2c(C)nn(C)c2C)cc1 | -4.87% |
| O=[N+]([O-])c1cccc(S(=O)(=O)Nc2ccc(Cc3ccncc3)cc2)c1 | -72.2% |
| CN1CCc2nc(NC(=O)c3cccc(OC(F)F)c3)sc2C1 | 3.7% |
| COc1ccc(C2=NO[C@H]3C[C@](C(=O)NC(C)C)(S(=O)(=O)c4ccccc4)C[C@@H]23)cc1 | -4.9% |
| O=C(CSc1ncn[nH]1)c1ccc2c(c1)OCCO2 | 9.72% |
| Cc1c(CCO)c(=O)n(C)n1C(=O)c1ccc(F)cc1 | 2.6% |
| O=C(c1cccc(F)c1)n1nnc2ccccc21 | 19.3% |
| COC(=O)[C@H](C)NC(=O)N1CCC(Cc2ccccc2)CC1 | 1.88% |

| Structure (SMILES) | hERG current change (%, negative = inhibition) at 10uM |
| --- | --- |
| CC1CCc2cc(F)ccc2N1C(=O)c1cccnc1 (centres unmarked) | 16.7% |
| C/C(Cl)=C/CN1C(=O)C2C3C=CC(C3)C2C1=O (centres unmarked) | -7.68% |
| COc1ccc(Oc2ncc(CN3CCN(c4ccccc4)CC3)s2)cc1 | -0.385% |
| O=C(CSc1nc2ccccc2[nH]1)c1ccc(Cl)s1 | 4.27% |
| O=C(NNC(=S)NC(=O)c1cn(-c2ccccc2)nc1-c1ccccc1)c1ccncc1 | 25.4% |
| Cn1c(=NC(=O)C2CC2)sc2cc(F)cc(F)c21 | -12.3% |
| O=c1oc2ccccc2c(NC2CCCCC2)c1NS(=O)(=O)c1ccc(F)cc1 | -3.45% |
| COc1ccc(O)c(C(=O)c2cnn(-c3ccc(Cl)cc3)c2)c1 | 11.8% |
| Cc1cc(C)nc(NS(=O)(=O)c2ccc(NC(=O)c3cc(-c4ccccc4)nc4ccccc34)cc2)n1 | -8.48% |
| CC(=O)N1CCC2(CC1)C(C#N)=C(N)Oc1n[nH]c(C)c12 | 15.5% |
| COc1ccccc1NC(=O)CN1CCN(CC(=O)Nc2ccccc2Cl)CC1 | 2.56% |
| CCOC(=O)c1ccc(NC(=O)CCS(=O)(=O)c2cccc3nonc23)cc1 | 4.06% |
| Cc1ccc(CNC(=S)NC2CCC(C(C)(C)C)CC2)cc1 (centres unmarked) | 10.8% |
| O=C1CCCN2N=C(SCC(=O)Nc3nc4ccccc4s3)SC2=N1 | 2.87% |
| CC(C)(C)OC(=O)N1CCN(C(=O)c2[nH]cnc2C(=O)NCC(=O)OCc2ccccc2)CC1 | -11.9% |
| COC(=O)c1c(NC(=O)COC(=O)c2ccc(Cl)nc2)sc(C)c1C | 8.27% |
| O=C(O)C1C2C=CC(C2)C1C(=O)NCCc1cccc(Cl)c1 (centres unmarked) | 11.1% |
| CCOC(=O)N1CCN(C(=O)c2c[nH]c3ccc(S(=O)(=O)N(C)c4ccccc4C)cc3c2=O)CC1 | -1.1% |
| O=C(c1ccc(N2CCN(CCO)CC2)nc1)N1CCOCC1 | 20.6% |
| COc1ccc(S(=O)(=O)N2CCN(C)CC2c2ccccc2)cc1.Cl (centres unmarked) | 1.55% |
